About 2,200 (0.71%) of roughly 310,000 compounds showed an effect of 50% or more. The effect is printed as a negative number. The list shows a part of the results.
Target: human ether-à-go-go-related gene (hERG) potassium channel (human, UniProt Q12809)
Test: primary screen, population patch clamp on CHO cells stably expressing hERG

Chain of human ether-à-go-go-related gene (hERG) potassium channel (Q12809 whole entry, looked up): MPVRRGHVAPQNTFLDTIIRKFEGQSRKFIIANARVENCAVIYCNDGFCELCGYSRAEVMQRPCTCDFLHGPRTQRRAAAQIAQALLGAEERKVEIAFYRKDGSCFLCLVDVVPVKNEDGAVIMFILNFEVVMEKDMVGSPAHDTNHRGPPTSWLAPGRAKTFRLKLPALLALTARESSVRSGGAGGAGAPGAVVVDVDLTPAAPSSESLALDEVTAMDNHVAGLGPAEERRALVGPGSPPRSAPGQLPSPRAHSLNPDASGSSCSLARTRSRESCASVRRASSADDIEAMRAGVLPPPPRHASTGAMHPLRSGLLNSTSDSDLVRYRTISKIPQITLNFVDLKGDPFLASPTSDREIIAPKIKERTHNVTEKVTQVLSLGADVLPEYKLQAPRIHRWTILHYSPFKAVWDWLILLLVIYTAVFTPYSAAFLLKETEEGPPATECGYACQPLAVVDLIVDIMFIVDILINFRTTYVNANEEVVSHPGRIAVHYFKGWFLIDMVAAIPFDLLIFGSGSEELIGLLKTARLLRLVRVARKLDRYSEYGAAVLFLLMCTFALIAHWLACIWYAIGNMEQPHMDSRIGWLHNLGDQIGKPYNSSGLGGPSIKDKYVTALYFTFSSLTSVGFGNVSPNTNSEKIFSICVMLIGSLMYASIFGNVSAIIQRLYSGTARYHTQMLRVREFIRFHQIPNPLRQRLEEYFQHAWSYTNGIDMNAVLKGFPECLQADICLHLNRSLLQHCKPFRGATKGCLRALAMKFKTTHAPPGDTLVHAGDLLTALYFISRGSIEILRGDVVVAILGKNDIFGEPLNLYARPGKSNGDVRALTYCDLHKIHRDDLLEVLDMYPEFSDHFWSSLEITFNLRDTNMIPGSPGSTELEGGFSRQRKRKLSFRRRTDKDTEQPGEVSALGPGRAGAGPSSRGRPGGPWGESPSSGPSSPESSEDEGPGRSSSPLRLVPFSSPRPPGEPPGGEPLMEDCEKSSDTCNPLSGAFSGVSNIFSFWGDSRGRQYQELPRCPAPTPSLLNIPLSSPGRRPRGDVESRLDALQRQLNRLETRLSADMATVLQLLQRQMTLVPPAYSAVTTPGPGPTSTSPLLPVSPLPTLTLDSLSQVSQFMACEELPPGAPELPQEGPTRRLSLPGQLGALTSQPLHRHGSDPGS

Compound	hERG current change (%, negative = inhibition) at 1uM
CC(NC(=O)COC(=O)COc1ccc(C(=O)c2ccccc2)cc1)c1ccccc1 (centres unmarked)	6.71%
Cc1ccc(N2CCN(S(=O)(=O)c3ccc4c(c3)oc(=O)n4C)CC2C)cc1 (centres unmarked)	14.1%
Cc1nc2ccccc2c(=O)n1-c1ccc(Cl)c(Cl)c1	8.74%
CCN(CC)Cc1c(O)ccc2c(=O)c(-c3ccccc3OC)coc12	15.6%
CCCN(CC(=O)Nc1ccccc1OC)C(=O)CCNC(=O)c1ccccc1OC	3.67%
O=C(CCc1nnc(CCCc2ccccc2)o1)NC(C1CC1)C1CC1	10.5%
O=C(Nc1cccc2ccccc12)c1ccc([N+](=O)[O-])o1	14%
CCCNC(=O)Cn1cccc1C(=O)c1ccccc1	12.7%
Brc1ccc(-c2nc3ccccc3s2)s1	2%
COc1cc(/C=N/n2c(-c3cc(C)[nH]n3)n[nH]c2=S)cc(OC)c1O	15.7%
CC(C)(C)OC(=O)N1CCC(C(=O)N2CCC[C@H]2C(=O)O)CC1	16.7%
C=CCn1c(=O)c2ccc(C(=O)NCc3ccccc3)cc2n(Cc2cccc(Cl)c2)c1=O	18.7%
O=[N+]([O-])c1cccc(-c2c(-c3ccccc3)ncc3ccc(F)cc23)c1	4.52%
CC(C)CCNC(=O)CO/N=C/c1ccccc1OC(F)F	11.3%
CCOC(=O)c1ccccc1NC(=O)Cn1cnc2c(cnn2C(C)(C)C)c1=O	11.1%
CCOc1ccc2nc(N3CCC(C(=O)NCCCN4CCOCC4)CC3)sc2c1	7.82%
CC(C)C(=O)Nc1ccc(C(=O)NC2CCSC2=O)cc1 (centres unmarked)	22.9%
CC(C)(C)C(=O)N1CCN(CCN2C(=O)c3cccc4cccc(c34)C2=O)CC1	15.6%
CC1(C)CC(=O)c2sc(NS(=O)(=O)c3ccc([N+](=O)[O-])cc3)nc2C1	18.3%
COc1ccc(C(=O)c2c(C)oc3ccc(O)cc23)c(OC)c1	13.8%
O=C(Nc1cccnc1)/C(N=Nc1c(Cl)cccc1Cl)=C(\O)c1ccccc1	9.29%
CC(C)c1ccc(C(C(=O)NC2CCCCC2)N(C(=O)c2csnn2)C2CC2)cc1 (centres unmarked)	16.8%
COc1ccc(CC(=O)N/N=C/c2cc([N+](=O)[O-])cc(Br)c2O)cc1	3.83%

Compound	hERG current change (%, negative = inhibition) at 1uM
COc1cc(S(=O)(=O)Nc2ccc3cn[nH]c3c2)ccc1Cl	10.1%
O=C(CC1C(=O)NCCN1C/C=C/c1ccccc1)NCCc1ccncc1 (centres unmarked)	5.73%
CCOc1cc(/C=N/NC(=O)N/N=C/c2ccc(O)c(OCC)c2)ccc1O	1.38%
COc1ccccc1-c1n[nH]c(=S)n1-c1ccccc1	9.58%
NNc1nc2sc3c(c2c(=O)n1C1CCCCC1)CCN(Cc1ccccc1)C3	11.9%
CC(C)c1ccc(NC(=O)COC(=O)CSc2nnc(N)s2)cc1	14.1%
COc1ccc(CCNC(=O)CN2C(=O)NC(C)(c3ccc([N+](=O)[O-])cc3)C2=O)cc1 (centres unmarked)	-13.3%
O=P(OC1CCCCC1)(OC1CCCCC1)C(O)c1c(Cl)cccc1Cl (centres unmarked)	1.86%
COc1cccc(-n2cc(C(=O)NCCCOC(C)C)c3ccccc3c2=O)c1	13%
Cc1n[nH]c(C)c1C(=O)CC1(O)C(=O)N(Cc2ccccc2)c2ccc(Br)cc21 (centres unmarked)	10.8%
COc1ccc(S(=O)(=O)N2CCCC(C(=O)NCCC(C)C)C2)cc1 (centres unmarked)	8.25%
CC(=O)c1cccc(NC(=O)C(C)OC(=O)c2cc(=O)[nH]c3ccccc23)c1 (centres unmarked)	5.09%
Cc1c(-c2n[nH]c(=S)n2-c2ccc(C(F)(F)F)cc2)nnn1-c1ccccc1	21.7%
COc1ccc(CCN(C)CCC(=O)Nc2ccc(C)cc2)cc1OC.Cl	-35.9%
Cc1nn(-c2ccccc2)c(C)c1/C=C/C(=O)OC(C)C(N)=O (centres unmarked)	7.39%
O=C(O)CSc1ccccc1C(=O)O	1.54%
COc1ccc(CC(=O)NC(C)c2nnc(SCC(=O)c3ccc(Br)cc3)n2C)cc1 (centres unmarked)	1.07%
CC(C)c1ccccc1OS(N)(=O)=O	4.02%
C=CCn1c(SCC(=O)N2CC(=O)Nc3ccccc32)nc2scc(-c3ccccc3)c2c1=O	8.29%
Cc1ccc(C(=O)NCCCN2CCOCC2)cc1	9.79%
COc1ccc(S(=O)(=O)N2CCC(NC(=O)C(Cc3cccc(OC)c3OC)NC(C)=O)CC2)cc1 (centres unmarked)	13%
CCOC(=S)SCc1cn2ccc(C)cc2n1	-0.643%
Cc1cccc(N(CC(=O)N2CCCCCC2)S(C)(=O)=O)c1	15.2%

Compound	hERG current change (%, negative = inhibition) at 1uM
COc1cc2c(C#N)c(N3CCN(C)CC3)nc(N)c2c(N)n1	5.12%
Cc1ccccc1-c1nc2c(s1)CCc1onc(-c3ccc(Cl)cc3)c1-2	14.4%
CCOC(=O)c1c(C)[nH]c(C)c1S(=O)(=O)NCCc1sccc1C	20.2%
COc1ccc(C(NC(=O)C(C)C)c2c(O)ccc3ccccc23)cc1OC (centres unmarked)	7.99%
COc1ccccc1N1CCN(c2ncnc3sc(C(=O)NCC4CCCO4)c(C)c23)CC1 (centres unmarked)	17.1%
COC(=O)c1c(NC(=O)C(=O)NCCCN2CCOCC2)sc2c1CCC2	20.6%
c1ccc(Cn2nnc3c(N4CCc5ccccc54)ncnc32)cc1	9.78%
CC(=O)N1c2ccc(S(=O)(=O)N3CCCCC3)cc2CC1C(=O)Nc1ccc(C)cc1 (centres unmarked)	6.92%
CCOc1ccc(-c2c(C(=O)N/N=C(\C)c3ccncc3)nnn2-c2nonc2N)cc1	9.33%
Cc1ccc(C2N3CC4([N+](=O)[O-])CN2CC([N+](=O)[O-])(C3)C4(C)C)cc1 (centres unmarked)	8.44%
O=C(O)c1ccccc1OCc1ccccc1Cl	10.8%
Cc1cccc(NC(=O)c2ccc(S(=O)(=O)N3CC(C)OC(C)C3)cc2)n1 (centres unmarked)	7.27%
CCN(CC)c1ncnc2scc(C3COc4ccccc4O3)c12 (centres unmarked)	8.61%
CCn1c(=O)n(CC)c2cc(NS(=O)(=O)c3ccccc3)ccc21	-2.94%
Cc1ccc(-c2csc3ncnc(Cl)c23)cc1	7.18%
CCCOc1ccc(N/C=C/C(=O)C(C)(C)C)cc1	19.8%
CC(C)(C)C(=O)/C(C#N)=C/c1ccc(O)cc1	15.2%
Cc1cccc(N2CCN(C(=O)C3CCCCC3)CC2)c1C	-2.42%
CC(C)(C)NC(=O)c1ccc2nsnc2c1	6.08%
O=C(NCC1CCCO1)C1CCN(C2CCN(C(=O)C3CCCCC3)CC2)CC1 (centres unmarked)	16%
Cc1cccc(OCC(=O)Nc2cc(S(=O)(=O)N3CCOCC3)ccc2N2CCCC2)c1C	22.3%
Fc1ccc(CN2CCCN(C(=S)Nc3ccc(F)cc3)CC2)cc1	2.05%
CCOc1ccc(NC(=O)CN(C)S(=O)(=O)c2cccs2)cc1	8.98%

Compound	hERG current change (%, negative = inhibition) at 1uM
COc1ccc(C2OC(=O)CC2C(=O)NCc2ccc(Cl)cc2)cc1OC (centres unmarked)	6.73%
Cc1nc(NCc2ccc(S(N)(=O)=O)cc2)c2c(C)c(C)sc2n1	-1.15%
COc1ccc(NC(=O)CSc2nc(N)cc(N)n2)cc1S(=O)(=O)N1CCCCC1	10.4%
COc1cc2c(cc1OC)CN(C(=O)CN1C(=O)NC3(CCC(C)CC3)C1=O)CC2 (centres unmarked)	14.9%
Cc1cc(C)c2c(N)c(C(=O)NNC(=O)c3ccccc3)sc2n1	12.8%
Fc1ccccc1Cn1cc(C(=S)N2CCOCC2)c2ccccc21	12%
O=c1cc(CO)oc(C(Nc2ccccn2)c2ccsc2)c1O (centres unmarked)	12.4%
O=C(N/N=C/c1cccs1)c1n[nH]c2c1CCC2	20.1%
COc1ccc(Cl)cc1NC(=O)c1oc(C)nc1C	-1.29%
C=C(c1ccccc1Cl)[n+]1ccccc1.F[B-](F)(F)F	17.5%
C=CCNc1sc(C(=O)c2ccccc2)c(N)c1C#N	9.87%
COc1ccc(CCNc2nc(=S)[nH]c3cc(OC)c(OC)cc23)cc1OC	9.76%
O=C(O)CCSc1nnc(-c2cccnc2)n1-c1ccccc1	10.5%
O=C1CN(C(=O)CC2c3ccccc3-c3ccccc32)CC(=O)N1	5.63%
O=c1c(Oc2ccccc2F)coc2cc(OCc3cnn(-c4ccccc4)c3)ccc12	-6.87%
O=C(NCC1CCCCC1)c1cc2ccccc2cc1O	-0.818%
Cc1cccc(Sc2c([N+](=O)[O-])ncn2C)n1	4.24%
COC(=O)c1ccc(NC(=O)CCN2C(=O)CSC2=O)cc1	8.21%
CCc1ccc(OCCNC(=O)c2ccccc2SCc2ccccc2)cc1	6.16%
CCC(C)(C)n1nnnc1C(c1cc2cc(C)ccc2[nH]c1=O)N1CCCc2ccccc21 (centres unmarked)	0.711%

From article PMC4336329 (PLoS ONE, 2015)
